Results from the supplement of paper PMC10338343.
± gives the standard deviation. The list shows a part of the results, in another mix than the full data.

What follows are sequences tested on MIWI (PIWIL1) piRISC loaded with piRNA #1 (30 nt) (assay: pre-steady-state target cleavage rate (min^-1); MIWI and MILI are mouse PIWI proteins and EfPiwi is from a freshwater sponge; tags in brackets are library labels; higher = faster piRNA-guided slicing of the target). Settings: guide: piRNA #1 5'p-UGAGGUAGUAGGUUGUAUAGUAUCCAGAGG; auxiliary factor: 500 nM mouse GTSF1.
Method in brief: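 A transcribed, DNA-blocked target RNA library […] was incubated at 33 °C for 0–8 or 0–960 min with 1 nM active affinity-purified piRISC carrying one synthetic guide, in HEPES–potassium acetate buffer with or without 500 nM GTSF1 partner protein. Uncleaved targets were then sequenced and normalised to depth and to weakly complementary targets. Data from three trials were pooled, with k3 capped at 0.0001 min^-1, and a burst-and-steady-state fit yielded the pre-steady-state cleavage rate.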
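Note: 1 nM active piRISC with 0.1 nM target library at 33 °C single turnover.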

Sequence	pre-steady-state target cleavage rate
GGUCUGGAAUGUAUACAACCUACUACCUCA	0.592 ± 0.046
GGAGACCAUACUAUACAACCUAUUACCUCA	1.49 ± 0.097
GGAGACCUAACUAUACAACCUACGUACCUCA	0.234 ± 0.03
GGUCUGGAUACUAUACAACGUAGUACCUCA	0.154 ± 0.042
GGAGACCUAUCUAUACAAACUACUACCUCA	0.369 ± 0.029
GGAGUGCAUACUAUACAACCUAGUACCUCA	0.467 ± 0.038
GGAGACCUAUGAAUAGAACCUACUACGUCA	< 0.0001
GCUCUGGAUACUAUACUACCUACUACGUCA	1.03 ± 0.061
GCUCUGGAUACUAUACAACCUUGUACCUCA	0.0481 ± 0.0085
GGACUGGAUACUUUACAAGCUACUACCUCA	0.959 ± 0.059
GGAGACCUUACUAUACAACCUACUACCUCA [g2:g22:cont:t1A]	1.52 ± 0.11
GCUCUGGAUACUAUAGAUCCUACUACCUCA	0.843 ± 0.058
GGAGACCUAUCUAUACAACCUACUACCUUA	0.905 ± 0.069
GGAGACCUUACUAUACAACCUCCUACCUCA	0.794 ± 0.041
CCUCUGGAAACAAUACAACCUACUACCUCA	1.75 ± 0.11
GGUCUGGAUUCAAUACAACCUACUACCUCA	1.08 ± 0.069
GGACUGGAUACUAUACAACGUACUAGCUCA	0.0513 ± 0.014
GGAGUGGAUACUAUACAACCUACUACCUCG [g2:g26:cont:t1G]	0.869 ± 0.07
GGAGAGGAUACAAUACAACCUACUACCUGA	0.294 ± 0.029
GGAGUGGAUACUUUACAACCUACUACGUCA	0.244 ± 0.031

Sequence	pre-steady-state target cleavage rate
GGACUGGAUACUAUACAACCUACUAACUCA	0.0689 ± 0.013
GGUCUGGAUAGUAUAGAACCUACUACCUCA	0.88 ± 0.07
GGAGAGGUUACUAUUCAACCUACUACCUCA	1.21 ± 0.057
GGAGACCUUACUAUACAACCUAGUAGCUCA	0.00589 ± 0.0023
GGAGAGGAUACUAUACAACCUACUACCUCG [g2:g25:cont:t1G]	0.774 ± 0.045
GGUCUGGAUUGAAUACAACCUACUACCUCA	0.555 ± 0.065
GCUCUGGAUACUAAACAACGUACUACCUCA	1.06 ± 0.07
GGAGUGCAAACUAUACAACCUACUACCUCA	1.04 ± 0.086
GGUCUGGAUAGUAUACAACCUACUAGCUCA	0.0144 ± 0.0064
GGAGACCUUACUAUACAUCCUACUACGUCA	0.515 ± 0.044
CCUCUGGAUACUAAACAACCUACUUCCUCA	0.551 ± 0.046
GGAGACCUAUCUAUACAACCUACUAGGACA	0.00896 ± 0.0047
GGAGACCAUACUAUACAAGCUACAACCUCA	0.744 ± 0.052
GGAGAGGAUACCAUACAACCUACUACCUCA	1.39 ± 0.062
GCUCUGGAUACUAUUGUACCUACUACCUCA	0.109 ± 0.019
GCUCUGGAUAGUAUACAAGCUACUACCUCA	0.772 ± 0.05
GCUCUGGAUACUAUACAACCGACUACCUCA	0.0121 ± 0.0027
CGUCUGGAUACUAUACAACCUACUACCUCA	1.78 ± 0.12
GGAGACCAUAGAAUACAACCUACUACCUCA	0.013 ± 0.004
GGAGACCUAUGUAUACAUCCUACUAGCUCA	0.00199 ± 0.0016
